# Reference: publication PMC6919601, “Identification of Plasmodium dipeptidyl aminopeptidase allosteric inhibitors by high throughput screening” (PLoS ONE, 2019)
# In all, about 110,000 compounds went through this assay and about 230 (0.21%) showed an effect of 50% or more. The list shows a part of the results.
# Biological target: DPAP1 (Plasmodium falciparum, UniProt Q8IIJ9)
# Assay: primary screen, percent inhibition; read by cleavage of a fluorogenic dipeptide substrate; higher = more effect of the substance
# Design: species or system P. falciparum D10 trophozoite lysates; single well
# 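Note: 30 min substrate incubation versus DMSO and 10 µM JCP410 controls.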
# DPAP1, sequence (Q8IIJ9 whole entry, looked up): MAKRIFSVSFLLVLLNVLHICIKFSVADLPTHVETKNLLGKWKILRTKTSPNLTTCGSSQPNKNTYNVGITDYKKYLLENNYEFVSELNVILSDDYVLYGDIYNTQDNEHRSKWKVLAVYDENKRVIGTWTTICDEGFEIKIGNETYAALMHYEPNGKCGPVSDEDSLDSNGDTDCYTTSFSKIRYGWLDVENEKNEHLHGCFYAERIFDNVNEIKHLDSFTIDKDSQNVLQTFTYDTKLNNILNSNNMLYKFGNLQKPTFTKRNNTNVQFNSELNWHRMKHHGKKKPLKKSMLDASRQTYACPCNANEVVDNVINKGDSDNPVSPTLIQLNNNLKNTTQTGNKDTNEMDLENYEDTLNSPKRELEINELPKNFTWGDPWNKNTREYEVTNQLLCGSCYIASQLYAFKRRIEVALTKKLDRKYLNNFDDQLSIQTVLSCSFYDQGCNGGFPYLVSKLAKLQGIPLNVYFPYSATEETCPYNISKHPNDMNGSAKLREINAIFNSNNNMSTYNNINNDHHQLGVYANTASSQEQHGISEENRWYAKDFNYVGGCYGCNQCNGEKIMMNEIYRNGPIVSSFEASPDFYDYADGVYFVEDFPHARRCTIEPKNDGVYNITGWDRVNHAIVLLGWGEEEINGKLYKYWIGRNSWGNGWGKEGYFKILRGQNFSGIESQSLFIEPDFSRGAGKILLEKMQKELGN
row,SMILES,% Inhibition @ 10 uM [%]
1,COc1ccc(NC(=O)CC23CC4CC(CC(C4)C2)C3)cn1,-6.42
2,COc1cc(OC)cc(C2c3[nH]c4ccccc4c3CCN2C(C)=O)c1 (stereo not drawn),-5.32
3,O=C(Cc1ccccc1)N1CCN(c2ccc(Cl)cc2)CC1,-3.49
4,COCCN1C(=O)c2ccccc2C(C(=O)NCc2ccccc2OC)C1c1c[nH]c2ccccc12 (stereo not drawn),4.58
5,N#CCNC(=O)[C@H](CSCc1ccccc1)NC(=O)c1ccc2[nH]ccc2c1,-0.214
6,CCN(CC)C(=O)CN(Cc1ccc(Br)cc1)S(=O)(=O)c1ccc(C)cc1,-1.6
7,O=C(CSCC(=O)Nc1ccccc1-c1ccccc1)Nc1ccc2ccccc2c1,-3.26
8,Cc1c(C(=O)Nc2cc(C(F)(F)F)ccc2Cl)cccc1[N+](=O)[O-],-8.2
9,CC1=C(C(=O)OCCc2ccccc2)C(c2cccc3ccccc23)NC(=O)N1 (stereo not drawn),2.7
10,CCN(Cc1ccccc1)S(=O)(=O)c1ccc2nc(O)ccc2c1,-2.37
11,CCOc1ccccc1NC(=O)C1=C(C)NC(=O)NC1c1cccc(OC)c1OC (stereo not drawn),0.812
12,Cc1nc2ccc(S(=O)(=O)NC(C(=O)Nc3nc4ccc(Cl)cc4s3)C(C)C)cc2s1 (stereo not drawn),3.2
13,O=C(c1cccc(COc2cccc3ccccc23)c1)N1CCCC1,-3.49
14,CCc1nonc1NC(=O)c1sc2ccccc2c1Cl,4.83
15,CCOc1cccc(C2Oc3ccccc3C3CC(c4cccs4)=NN32)c1O (stereo not drawn),14.4
16,COc1ccc(OCC(=O)N2CCN(C(=O)COc3ccccc3)CC2)cc1,3.54
17,CCCC1CCC(c2ccc(OCC)cc2)CC1=O (stereo not drawn),1.48
18,CC(CCc1ccccc1)NC(=O)C1CCN(C(=O)c2sccc2-n2cccc2)CC1 (stereo not drawn),3.3
19,C=CC1CN2CCC1CC2[C@@H](O)c1cnc2ccc(OC)cc2c1 (stereo partly drawn),2.84
20,OCCN(Cc1ccccc1)CC1CC2C=CC1C2 (stereo not drawn),-2.34
21,CN(Cc1ccccc1)C1CC(=O)N(c2ccccc2)C1=O (stereo not drawn),4.65
22,O=C1S/C(=C/c2ccncc2)C(=O)N1Cc1ccccc1,15.2
23,N/C(=C\C(=O)c1ccccc1O)C(F)(F)F,3.39
24,Cc1ccc(-c2nnc3sc(-c4cnccn4)nn23)cc1,-4.02
25,c1ccc(-c2cn(-c3nc(N4CCOCC4)nc(N4CCOCC4)n3)nn2)cc1,4.32
26,COc1ccc(-c2ccccc2)cc1NC1CCCC(C)C1 (stereo not drawn),1.57

row,SMILES,% Inhibition @ 10 uM [%]
1,O=C1C2CCCCC2C(=O)N1c1ccc(N2C(=O)C3C4C=CC(C4)C3C2=O)cc1 (stereo not drawn),-2.09
2,CCN(C(=O)CN1CCCCC1)C1(C)C(=O)c2ccccc2C1=O,1.39
3,COc1ccc(Cn2c(C(=O)O)c(CNCc3ccccc3Cl)c3ccc(OC)cc32)cc1,3.64
4,O=C(c1cc(-c2ccc(F)cc2)on1)N1CCc2ccccc2C1,-3.36
5,O=C(CN1C(=O)C2C3C=CC(C3)C2C1=O)Nc1nc(-c2ccccc2)cs1 (stereo not drawn),2.56
6,CCCCNC(=O)CSc1nc2nnc(C)c-2c(N)n1-c1ccccc1Cl,-3.93
7,COc1ccc(C(=O)CSc2ccc(-c3cccs3)nn2)cc1,0.304
8,CCN1CC2(c3ccccc3)CN(CC)CC(c3ccccc3)(C1)C2=O,-6.25
9,CCC(CC)C(=O)Nc1sc(C(=O)OC)c(C)c1C(=O)OC,-0.333
10,CCOC(=O)c1oc2c(c1C)C(=O)CC(C)(C)C2,6.3
11,COc1ccc(C(=O)c2oc3ccccc3c2NC(=O)COc2ccc(F)cc2)cc1,2.17
12,Cc1ccc(CN(C(=O)NC2CCCC2)C2CCN(Cc3ccccc3)CC2)o1,-3.32
13,O=C(Cn1c(C(F)(F)F)nc2ccccc21)c1ccc(OC(F)F)cc1,-5.6
14,CCOCCCNC(=O)CCCn1c(=O)c2cccn2c2cccnc21,3.59
15,CC(C)(C)c1c(O)nc(S)nc1O,-4.26
16,COc1ccc(CNCCNC(=O)c2nonc2N)cc1OC,-3.5
17,O=C(NCCN1CCOCC1)C1CC(=O)N(C2CCCCC2)C1 (stereo not drawn),-0.0542
18,COc1ccc(-n2c(C)cc(/C=C3/NC(=O)N(Cc4ccccc4F)C3=O)c2C)cc1,-0.0626
19,O=C1OC(/C=C/c2ccc(Cl)cc2Cl)=NC/1=C/c1ccc2c(c1)OCO2,-4.73
20,C[C@@H]1CC[C@@]2(NC1)OC1C[C@H]3C4CC=C5CC(O)CCC5(C)C4CCC3(C)C1[C@@H]2C (stereo partly drawn),5.2
21,CCOc1cc(/C=C2/SC(=O)N(C(C)C)C2=O)ccc1OCC(=O)O,3.58
22,COc1ccc(-c2cc(N)n(S(=O)(=O)c3ccc(C(C)(C)C)cc3)n2)cc1OC,-2.88
23,CN1C(=O)C(=Cc2cc(Cl)cc(Cl)c2OCc2ccccc2)C(=O)N(C)C1=O,18.2
24,O=C1Nc2ccccc2SC1C1C(=O)Nc2ccccc21 (stereo not drawn),3.57
25,CN1C(=O)NC(=O)/C(=C/c2ccc(Br)s2)C1=O,0.587
